The target in experiment [1] is T1, HaloTag-Hook3-3xFLAG (human) (UniProt Q86VS8).
T1 sequence: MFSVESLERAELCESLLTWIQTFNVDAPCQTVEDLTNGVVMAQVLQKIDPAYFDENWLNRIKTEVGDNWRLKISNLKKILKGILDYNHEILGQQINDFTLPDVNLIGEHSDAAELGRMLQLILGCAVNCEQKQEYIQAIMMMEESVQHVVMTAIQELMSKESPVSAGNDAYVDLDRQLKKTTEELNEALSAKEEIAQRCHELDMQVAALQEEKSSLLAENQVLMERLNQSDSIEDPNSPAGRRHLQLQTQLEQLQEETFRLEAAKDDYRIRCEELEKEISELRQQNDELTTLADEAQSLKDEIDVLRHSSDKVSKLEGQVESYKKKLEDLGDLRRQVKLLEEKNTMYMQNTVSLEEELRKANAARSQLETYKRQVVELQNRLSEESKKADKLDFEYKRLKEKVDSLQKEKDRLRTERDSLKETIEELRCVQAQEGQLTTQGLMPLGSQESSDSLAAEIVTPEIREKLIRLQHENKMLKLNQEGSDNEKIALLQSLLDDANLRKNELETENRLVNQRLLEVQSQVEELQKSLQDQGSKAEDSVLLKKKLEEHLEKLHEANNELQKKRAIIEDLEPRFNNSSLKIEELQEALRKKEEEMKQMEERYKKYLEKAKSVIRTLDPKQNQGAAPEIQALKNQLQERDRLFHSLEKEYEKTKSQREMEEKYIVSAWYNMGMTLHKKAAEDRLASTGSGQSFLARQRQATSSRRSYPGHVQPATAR
Nature of the experiment: co-IP; FLAG affinity resin IP of HaloTag-Hook-3xFLAG baits from transiently transfected 293T cells; immunoblots with anti-FHIP1B, anti-FHIP2A, anti-FHIP2B; sfGFP-3xFLAG as control. In general terms: A western blot detects proteins with antibodies after separation by electrophoresis.

Chains of the proteins cited; added tags and fusions are not shown.
UniProt Q9NP72: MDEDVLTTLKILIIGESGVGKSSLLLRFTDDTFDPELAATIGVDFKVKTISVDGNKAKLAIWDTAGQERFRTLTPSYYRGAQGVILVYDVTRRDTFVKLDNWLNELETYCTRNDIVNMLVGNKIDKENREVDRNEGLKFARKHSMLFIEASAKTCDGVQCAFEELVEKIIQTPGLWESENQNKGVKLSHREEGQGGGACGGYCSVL
UniProt P20340: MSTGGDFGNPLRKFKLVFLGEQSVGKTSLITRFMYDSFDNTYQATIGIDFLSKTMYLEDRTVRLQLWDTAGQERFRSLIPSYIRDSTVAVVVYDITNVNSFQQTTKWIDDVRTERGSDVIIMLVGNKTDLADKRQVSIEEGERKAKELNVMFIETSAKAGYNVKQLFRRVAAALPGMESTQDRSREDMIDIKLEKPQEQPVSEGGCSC
UniProt P62820: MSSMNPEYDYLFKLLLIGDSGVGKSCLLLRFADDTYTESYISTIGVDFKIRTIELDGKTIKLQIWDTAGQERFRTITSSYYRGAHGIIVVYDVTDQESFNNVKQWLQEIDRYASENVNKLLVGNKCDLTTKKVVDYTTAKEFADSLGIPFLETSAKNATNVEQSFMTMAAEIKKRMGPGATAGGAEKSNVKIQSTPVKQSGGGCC
UniProt P61026: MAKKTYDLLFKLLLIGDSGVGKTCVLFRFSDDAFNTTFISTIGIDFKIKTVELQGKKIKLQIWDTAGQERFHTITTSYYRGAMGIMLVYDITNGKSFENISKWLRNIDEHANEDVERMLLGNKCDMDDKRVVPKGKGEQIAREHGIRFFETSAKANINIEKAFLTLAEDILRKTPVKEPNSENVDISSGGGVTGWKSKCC

Experiment [2] has as its target T2, EGFP-Rab3A (human) (UniProt P20336).
T2 sequence: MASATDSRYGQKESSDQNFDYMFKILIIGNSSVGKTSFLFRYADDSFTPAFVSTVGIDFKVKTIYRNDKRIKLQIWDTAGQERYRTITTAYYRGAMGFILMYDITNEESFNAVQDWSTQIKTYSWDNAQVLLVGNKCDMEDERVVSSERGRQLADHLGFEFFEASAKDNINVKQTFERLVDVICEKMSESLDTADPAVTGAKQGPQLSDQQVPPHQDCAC
Put plainly: co-IP; GFP nanobody affinity resin IP of EGFP-Rab baits from transiently transfected 293T cells in the presence of GTPγS (2 mM in the lysis buffer); immunoblots with anti-FHIP1B or anti-FHIP2A; 3xHA-sfGFP as control.

Experiment [3] deals with T3, GFP-Rab5B (human) (UniProt P61020).
T3 sequence: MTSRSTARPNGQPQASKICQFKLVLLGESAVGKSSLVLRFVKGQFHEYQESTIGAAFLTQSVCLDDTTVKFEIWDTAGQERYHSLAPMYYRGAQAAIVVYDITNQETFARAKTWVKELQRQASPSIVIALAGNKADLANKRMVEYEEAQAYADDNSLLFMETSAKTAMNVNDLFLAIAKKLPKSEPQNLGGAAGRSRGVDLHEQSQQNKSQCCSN
Described as above.

Experiment [4] concerns the target EGFP-Rab18 (human) (UniProt Q9NP72). Described as above.
For experiment [5], the target named is EGFP-Rab6A (human) (UniProt P20340). The description is as above.
Experiment [6] addresses EGFP-Rab1A (human) (UniProt P62820). The experiment is described as above.
Experiment [7] has as its target EGFP-Rab10 (human) (UniProt P61026). Described as above.

These are yes or no findings as the source states them, for the method shown. In cells and extracts the contact can be indirect. Some entries that bind do so weakly or less than the wild type. For some of these results: Sequences can lack the tags named with a protein.

B1: FHIP1B, endogenous in 293T cells (protein, UniProt Q8N612 1-972)
chain: MERMNWLSRLASRGPGHRIPQGANLQTPVMADPETCLMVFKNHWSQVVRILERQGPRAAPGGADDLSAVRNHTYQMLTLLAEDRAVPSAPTGPGPLLEFALHEDLLTRVLTWQLQWDELGDGVEERRAEQLKLFEMLVSEARQPLLRHGPVREALLTLLDACGRPVPSSPALDEGLVLLLSQLCVCVAQEPSLLEFFLQPPPEPGAAPRLLLFSRLVPFVHREGTLGQQARDALLLLMALSAGSPTVGRYIADHSYFCPVLATGLSALYSSLPRKIEVPGDDWHCLRREDWLGVPALALFMSSLEFCNAVIQVAHPLVQKQLVDYIHNGFLVPVMGPALHKTSVEEMIASTAYLELFLRSISEPALLRTFLRFLLLHRHDTHTILDTLVARIGSNSRLCMVSLSLFRTLLNLSCEDVLLQLVLRYLVPCNHVMLSQKPAVRDVDLYGRAADKFLSLIPRCCRHHAPSPPRPEHASWARGPGSPSVDSSSVTTVPRPSTPSRLALFLRQQSLGGSESPGPAPCSPGLSASPASSPGRRPTPAEEPGELEDNYLEYLREARRGVDRCVRACRTWSAPYDGERPSPEPSPFGSRTKKRSLLPEEDRNNVGEGEEEELGRRGRAGGAGEGPGHLPPPQLNGVPGSWPEGAKKVRLVPKEGAGELLEGISEGMAGLEGFGQELRELEVALSNGGTGSESPLEPPLPLEEEEAYESFTCPPEPPGPFLSSPLRTLNQLPSQPFTGPFMAVLFAKLENMLQNSVYVNFLLTGLVAQLACHPQPLLRSFLLNTNMVFQPSVKSLLQVLGSVKNKIENFAASQEDFPALLSKAKKYLIARGKLDWAEGPAAGPAPRRSDPLVKSRRPSLGELLLRHAHSPTRARQAAQLVLQPGRDGAGLGLSGGSPGASTPVLLTRGGAPERQGEALRVKNAVYCAVIFPEFLKELAAISQAHAVTSPFLLETSEEGSGPLISGCGPLNP
Take B1: the binding result is recorded as “binds” in experiment [1]; “no binding” in experiment [2]; “binds” in experiment [3]; “no binding” in experiment [4]; “no binding” in experiment [5]; “no binding” in experiment [6]. The binding entry in experiment [7] is listed as “no binding”.

(Values after publication PMC8730729.)
